Data published in PubChem BioAssay AID493208 (National Center for Advancing Translational Sciences (NCATS), 2011).
Among all 44,000 compounds or so, about 340 (0.77%) were called active. Another 5% or so got no clear call; they are omitted. Calls follow the shape of the dose curve; as a rule, active = well fitted inhibition curve with a large enough effect; inconclusive = small, poorly fitted or top-dose-only effect; inactive = flat fitted curve, though single readings scatter. The list shows a part of the results.

assay: Acumen qHTS Assay for Inhibitors of the mTORC1 Signaling Pathway in MEF (Tsc2-/-, p53-/-) Cells: Sytravon; details: phospho-rpS6 immunofluorescence/PI, 24 h; series mostly up to 38.3 µM; activity change, negative = inhibition: at the top concentration;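 also: plate controls were DMSO for no effect and rapamycin for full effect; nearly all actives have a fitted effect of over 50% in size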
Summary of the method: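 Read-out: phospho-S6 Alexa-488 intensity over PI intensity per well, scored as % active cells using thresholds from rapamycin (7.5 nM) and DMSO controls. Tsc2-/-, p53-/- MEFs exposed to compound for 24 h; PI cell count recorded as viability.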

Activity change, negative = inhibition, inactive:
CCOc1ccc(-c2cc(-c3nc(-c4cc(OC)c(OC)c(OC)c4)no3)[nH]n2)cc1Cl 5.29%, Cc1ccc(-n2nc(CO)c(C(=O)NCc3cccs3)n2)cc1C 0.445%, Cc1cc(C)cc(NC(=O)CCCN2C(=O)COc3ccc(C)cc32)c1 -11.4%, COc1ccc(C)cc1NC(=O)C1CCN(S(=O)(=O)c2ccc3[nH]c4c(c3c2)CCCCC4)CC1 -5.9%, Nc1cc(=O)nc(SCC(=O)Nc2ccc(F)cc2)n1-c1ccccc1Cl 0.393%, O=C(COc1ccc([N+](=O)[O-])cc1)NCC1(N2CCOCC2)CCCCC1 -4.73%, Oc1c(C(c2ccccc2F)N2CCCCC2)sc2nc(-c3ccco3)nn12 (centres undefined) -2.95%, CC(=O)c1cccc(NC(=O)CSc2nc(=O)n(Cc3cccnc3)c3c2CCC3)c1 -5.58%, O=C(CCc1cn(Cc2ccccc2Cl)c2ccccc12)NC1CCCCC1 -3.46%, Cc1ccc(NC(=O)c2cn3c4c(ccc(Cl)c4c2=O)OC(C)C3)c(C)c1 (centres undefined) 1.6%, CC(C)CC(=O)Nc1ccc(S(=O)(=O)Nc2cc3c(cc2N2CCOCC2)n(C)c(=O)c(=O)n3C)cc1 -4.87%, CCCCc1nc2ccccc2n2c(-c3ccc(OC)cc3)c3c(=O)n(C)c(=O)n(C)c3c12 3.66%, Cc1c(C(=O)N2CCC(C)CC2)c(S(=O)(=O)NCc2ccc(Br)cc2)c(C)n1C 0%, COc1ccc(CNC(=O)c2cc(-c3cccc(Cl)c3)on2)cc1 -10.2%, COc1ccc(-n2ncc(C(=O)N3CCN(c4ncccn4)CC3)c2C2CCN(C(=O)OC(C)(C)C)CC2)cc1 6.31%, Cc1ccccc1Nc1c(-c2ccc(Cl)s2)nc2c(C)cccn12 -23.9%, COc1ccc(OC)c(NC(=O)CCc2c(C)nn(-c3ccc(N4CCCC4)nn3)c2C)c1 -10.3%, CCOc1ccccc1NC(=O)Cn1c(=O)n(CCCC(=O)NCCc2ccc(C)cc2)c(=O)c2ccccc21 -6.58%, COc1ccc(-c2c(C)c3cc(OC(=O)N4CCOCC4)ccc3oc2=O)cc1 0.943%, CC(C)(C)OC(=O)N1CCC(c2c(C(=O)NCCCN3CCc4ccccc4C3)cnn2-c2ccccc2)CC1 -18.6%, Cc1ccc(N2CC(NC(=O)c3ccc(S(=O)(=O)N4CCCC4)cc3)CC2=O)cc1 (centres undefined) 0.629%, O=C(Nc1ccc2c(c1)CCCN2C(=O)c1cccs1)c1c(F)cccc1F -13.3%, COc1ccc(-c2nc(C)c(CCNC(=O)C(=O)Nc3c(C)cccc3C)s2)cc1OC -4.78%, CCc1ccc(CNC(=O)CN(c2ccc(C)cc2)S(=O)(=O)N(C)C)cc1 1.75%, CSc1ccc(CNC(=O)C2CCN(c3nnc(-n4cccc4CNc4ccc(C)cc4)s3)CC2)cc1 -0.107%, N#Cc1c(-n2ncnc2-c2ccc(Br)cc2)sc2c1CCCCC2 9.04%, COc1ccc(OC)c(CCNC(=O)C2CCN(c3ncnc4c3nc3n4CCCCC3)CC2)c1 -3.53%, CCN(CC)S(=O)(=O)c1ccc2c(c1)c(=O)c(C(=O)NCCc1ccc(OC)c(OC)c1)cn2C -14.7%, COc1cccc(CN(C(=O)c2oc3ccc(Br)cc3c2C)C2CCS(=O)(=O)C2)c1 (centres undefined) -5.44%, CCC(=O)N1CCc2cc(Br)cc(S(=O)(=O)NCc3cccc(OC)c3)c21 0.376%, Cc1coc2cc3oc(=O)c(CCC(=O)N4CCCCC4)c(C)c3cc12 -2.44%, COC(=O)CNC(c1ccccc1)c1cc(Br)ccc1NC(=O)c1ccc(Cl)cc1 (centres undefined) 9.76%, Cc1nc2ccn(Cc3ccccc3)c(=O)c2cc1C(=O)Nc1ccc(F)cc1Cl -3.92%, CCOC(=O)c1ccccc1NC(=O)c1c(-c2ccccc2)noc1C -9.51%, CCN(CC)C(=O)CSc1nc(-c2ccccc2)cc(-c2ccc(OC)cc2)c1C#N 2.99%, Cc1ccc(C)c(NC(=O)CCc2nc3cccnc3n2Cc2cccs2)c1 1.42%, Cc1ccc(-c2cc(N)n(Cc3cccc(Cl)c3)n2)cc1 -0.689%, COc1cccc(NC(=O)Cn2c(=O)n(-c3ccccc3)c(=O)c3c4c(sc32)CCCC4)c1 -11.2%, Cc1cc2nc(NC(=O)c3ccc(S(=O)(=O)N4CCOCC4)cc3)sc2cc1C 4.19%, COc1ccccc1-c1noc(-c2ccc(NCc3ccccc3)c([N+](=O)[O-])c2)n1 -0.327%, CCOc1ccc(NC(=O)Nc2cccc(C)n2)cc1 -2.51%, Cc1ccc(-n2nc3c(N4CCC(C(=O)NCCc5ccccc5)CC4)nnc(C)c3c2C)cc1 -4.69%, COCCCN1CN=C(NS(=O)(=O)c2ccc(NC(C)=O)cc2)NC1 -15.2%, COc1ccc(C)cc1NC(=O)CN(C)S(=O)(=O)c1ccc2c(c1)CCCN2C(C)=O -4.63%, COc1ccc(N2Cc3cccc(C(=O)Nc4ccc(C)cc4)c3C2=O)cc1 -13.6%, CCOC(=O)c1sc2ccccc2c1S(=O)(=O)N1CCN(c2ccccc2F)CC1 -12.9%, COc1ccc(C)cc1NC(=O)CN1C(=O)CSc2ccc(S(=O)(=O)N3CCCC3)cc21 -1.81%, CC1=C(c2cccc(Cl)c2)S(=O)(=O)NC1=NCc1ccccc1C -6.65%, CCC(=O)N1CCc2cc(S(=O)(=O)N3CCN(c4ccccc4F)CC3)ccc21 -2.56%, COc1cc(OC)c(NC(=O)Cn2nc(C)n3cccc3c2=O)cc1Cl 5.1%, COc1ccc(-c2cn3nc(N4CCC(C(=O)NCc5cccc(Cl)c5)CC4)sc3n2)cc1 -8.78%, COc1cc(-c2noc(-c3ccc(N4CCCC4)c([N+](=O)[O-])c3)n2)cc(OC)c1OC -1.05%, CC(=O)N1CCc2c(sc3c2c(=O)n(Cc2ccccc2)c(=O)n3Cc2cccc(Cl)c2)C1 -0.153%, Cc1ccccc1Cn1cnc2c(oc3ccccc32)c1=O 7.59%, CCC(=O)N1CCc2cc(CNC(=O)Cc3ccc(OC)c(OC)c3)ccc21 1.95%, CC1=Nc2cc(C(=O)NC3CCC(C)CC3)ccc2Sc2c(C)ccc(C)c21 (centres undefined) -10.5%, COc1cc(C(=O)N2CCc3c([nH]c4ccccc34)C2c2ccc(F)cc2)cc(OC)c1OC (centres undefined) -7.86%, COc1ccc(NC(=O)c2ccc3c(c2)N(Cc2cccc(Cl)c2)C(=O)c2ccccc2S3(=O)=O)cc1Cl -3.63%, CCN(CC)C(=O)Cn1ncc2c([nH]c3ccc(C)cc32)c1=O 4.6%, CCOc1ccccc1CNC(=O)C1CCN(C(=O)N2CCOc3ccc(Cl)cc32)CC1 3.5%, Cc1ccc(-n2nc(C(=O)NCc3ccc(F)cc3Cl)c3c4ccccc4n(C)c3c2=O)cc1 -1.46%, FC(F)(F)c1ccc2c(c1)ncc1c(-c3ccccc3)nn(-c3ccccc3)c12 -1.06%, Cc1cn2c(=O)cc(COC(=O)c3cccc(NC(=O)COc4ccccc4)c3)nc2s1 7.38%, CCOC(=O)c1c(NC(=O)CSc2cn(CCNC(=O)c3ccc(OC)c(OC)c3)c3ccccc23)sc2c1CCC2 -16.8%, Cc1cccc(N2CCN(c3nc4ccc(C(=O)c5ccccc5)cc4n4cnnc34)CC2C)c1 (centres undefined) 0%, Cc1cc(C)n2nc(-c3ccc(Cl)cc3)nc2n1 -3.6%, COc1ccc(OC)c(NC(=O)c2oc3c(c2C)-c2nn(Cc4ccc(Cl)cc4)cc2CC3)c1 -4.97%, CC(C)Oc1ccc(CNC(=O)c2ccc(CS(=O)Cc3ccccc3Cl)o2)cc1 (centres undefined) -15.1%, CC(=O)Nc1ccc(NC(=O)Cn2cc3c(n2)CCCCC3)cc1 -4.92%, Cc1ccc2c(CC(=O)N3CCN(c4cccc(Cl)c4)CC3)coc2c1C -3%, COC(=O)CN1C(=O)CSc2ccc(S(=O)(=O)Nc3ccccc3)cc21 -1.82%, Cc1cccc(OCCSc2nc3ccc(NC(=O)COc4ccccc4C)cc3s2)c1 -0.735%, COCCN(Cc1ccco1)C(=O)c1cc2c(Cl)nc3ccc(C)cc3c2s1 0.139%, COc1ccc(NC(=O)Cn2nc(SC)c(S(=O)(=O)c3ccc(C)cc3)c2N)cc1OC 7.05%, CCN(CC)CCCNC(=O)CSc1nc2nc(C)c(Cc3ccccc3C)c(C)n2n1 0.775%, O=C(Nc1c(Cl)cccc1Cl)c1cccc2c1C(=O)N(C1CCCCC1)C2 0.768%, O=C(O)c1ccc2oc(=O)n(Cc3ccccc3)c2c1 0%, COc1ccc(-n2nc(C(=O)NCCCOC(C)C)c3c4ccccc4n(C)c3c2=O)cc1 -10.5%, Fc1ccccc1N1CCN(c2ncnc3c2nc2n3CCCCC2)CC1 -2.69%, COc1ccc(C2C(=O)N(C3CCC(C)CC3)CC(=O)N2C2CCCCC2)cc1OC (centres undefined) 7.9%, CCC(=O)N1CCc2cc(Br)cc(S(=O)(=O)CCC(=O)N(C)c3cccc(C)c3)c21 3.83%, CCOc1ccc(NC(=O)CC2C(=O)N(c3ccc(F)cc3)C(=O)N2CCc2sccc2C)cc1 (centres undefined) 0.0451%, COc1ccc(CNc2nc3c(-c4ccc(C)cc4)nnn3c3ccccc23)cc1 -8.17%, CCOC(=O)c1cc2c(=O)n3ccccc3nc2n(CCCOC)c1=NC(=O)c1c(-c2ccccc2Cl)noc1C 0.757%, CCCS(=O)(=O)NCCc1csc2nc(-c3ccc(C)cc3)nn12 1.1%, CCOc1ccc(NC(=O)C2CCCN(c3nn4cc(-c5ccc(OC)cc5)nc4s3)C2)cc1 (centres undefined) -7.6%, Cc1nc2nc(C)c(NS(=O)(=O)c3ccc(F)cc3)c(=O)n2[nH]1 -3.36%, O=C(Cn1cnc(S(=O)(=O)N2CCCC2)c1)Nc1cccc(F)c1 5.79%, Cc1ccccc1OCCCn1c(CCNC(=O)C2CCCCC2)nc2ccccc21 -0.418%, CN(C(=O)Cn1c(=O)n(CCC(=O)NCc2ccc3c(c2)OCO3)c(=O)c2sccc21)c1ccccc1 4.22%, Cc1ccc(-n2ncc(C(=O)N3CCN(C4CCCCC4)CC3)c2C2CCN(C(=O)OC(C)(C)C)CC2)cc1C 6.1%, Cc1ccc(NC(=O)c2sc3nc4n(c(=O)c3c2C)CCCCC4)c(Br)c1 0.597%, O=C1CC(c2nc3ccccc3n2CCC2CCCCC2)CN1c1ccccc1Cl (centres undefined) -0.59%, Cc1cccc(N2CCN(C(=O)CCCn3c(=O)[nH]c4ccsc4c3=O)CC2)c1C -9.67%
